According to PubChem BioAssay AID1508624 (National Center for Advancing Translational Sciences (NCATS), 2021):
Screen size: about 48,000 compounds; about 120 (0.25%) were called active. Another 4% or so got no clear call; they are omitted. The call rests on the fitted dose curve; in most records, active means well fitted activation curve with a large enough effect; inconclusive means small, poorly fitted or top-dose-only effect, or another doubt; inactive means no such curve, though single readings can be large or run the other way. The list shows a part of the results.

experiment: Primary qHTS for Identification of Small Molecule Activators of Huntingtin-Antisense Promoter Activity; conditions: HEK293 HTT-AS promoter firefly luciferase reporter, 24 h; series mostly up to 57.5 µM; activity change, positive = activation: at the top concentration; further: nearly all actives have a fitted effect of over 55% in size
In short: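 Quantitative HTS used concentration series of up to 57.5 uM final on HEK293 luciferase reporter cells, 24 h at 37 degrees C. Readout was Dual-Glo firefly luminescence.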

Activity change, positive = activation, inactive:
Cn1c(=O)c2sccc2n2c(CCC(=O)NCc3ccccc3Cl)nnc12 -13.1%
O=C(Nc1ccc(Cl)cc1)c1cc(S(=O)(=O)N2CCc3ccccc32)ccc1F -33.2%
COc1ccc(-c2nc(Cn3c(SCc4ccccc4F)nc4ccncc43)c(C)o2)cc1OC -16.3%
CCOc1ccc(C(=O)Nc2cc(-c3cn4cccnc4n3)ccc2C)cc1OCC -14.8%
Cc1cc(C)cc(NC(=O)C2CCC(CNS(=O)(=O)c3ccc4c(c3)C(C)(C)C(=O)N4C)CC2)c1 (configuration not stated) -48.8%
CCn1cc(C(=O)NCCc2ccc(C)cc2)c(=O)c2cc(S(=O)(=O)N3CCCCC3)ccc21 26.4% [at 11.5 µM, percent change from vehicle, -100% = no light]
COc1ccc(CCNC(=O)c2c(C)oc3ncn(CC(C)C)c(=O)c23)cc1OC -13.3%
Cc1cccc(NC(=O)c2oc3ccccc3c2NC(=O)c2cc(=O)c3cc(Cl)ccc3o2)c1 -1.13%
CCOC(=O)c1ccc(OC(=O)CCCCCN=C(N)N)cc1
COc1ccc(C)cc1NC(=O)CSc1ccc(-c2ccccn2)nn1 -16.9%
Cn1c(SCC(=O)c2ccc(F)cc2)nnc1-c1ccccc1Br -15.2%
COc1ccccc1C(=O)Nc1c(C(=O)N(C)c2ccccc2)sc2nc(C)cc(C)c12 -11.1%
Cc1nn2c(=O)cc(COC(=O)c3cccc(NC(=O)c4ccc(C(C)(C)C)cc4)c3)nc2s1 -3.59%
O=C(COC(=O)c1cccc(NC(=O)c2ccc(Br)cc2)c1)c1ccc(Br)cc1 -9.68%
COc1cccc(C(=O)Nc2ccc3nc(N4CCC(C)CC4)cc(C)c3c2)c1 -37.3%
CCOC(=O)c1[nH]c2c(c1Cc1ccccc1OC)C(=O)CC(c1ccc(OCC)cc1)C2 (configuration not stated) -16.8%
COc1ccc(C(=O)CCC(=O)Nc2ccc(OC)c(Cl)c2)cc1 -11.8%
COc1ccc(C2=CC(c3cccc(C)c3)n3nnnc3N2)cc1 (configuration not stated) -21.9%
CCOC(=O)c1c(C)oc2nc(C)nc(NCCc3ccc(SC)cc3)c12 -7.68%
Cc1ccc(S(=O)(=O)c2nc(S(C)(=O)=O)sc2NCc2ccccc2)cc1 -29.5%
COc1cc(NC(=O)Cn2nc(-c3ccc(C)c(C)c3)ccc2=O)cc(OC)c1 -25.2%
CCN(CC)S(=O)(=O)c1ccc2c(c1)N(CC(=O)Nc1ccc(C)cc1C)C(=O)C1CCCN21 (configuration not stated) -19.3%
CC(C)NC(=O)c1ccccc1NC(=O)c1nsc2ccccc12 10.4%
O=C(Cn1c(=O)n(-c2ccc(Cl)cc2)c(=O)c2oc3ccccc3c21)Nc1ccccc1 -22.1%
CC1CCN(c2ncnc3c2nnn3C)CC1 5.77%
CCN(CC)S(=O)(=O)c1nnc(NC(=O)c2ccc(C(C)C)cc2)s1 -24.6%
COc1cccc(C(=O)Nc2ccccc2-c2nnc(-c3cc(OC)ccc3Br)o2)c1 -12.5%
COc1ccc(C2=C(C)C(=O)N(Cc3ccc(C(=O)Nc4cc(C)ccc4C)cc3)S2(=O)=O)cc1 -35.4%
O=C(Cc1ccc(Cl)cc1)NCC(c1cccs1)S(=O)(=O)c1ccc(F)cc1 (configuration not stated) -31.9%
Cn1cnc(S(=O)(=O)N2CCC(C(=O)NCc3ccc(F)cc3)CC2)c1 -4.6%
CCCSS/C(CCO)=C(\C)N(C=O)Cc1cnc(C)nc1N 4.58%
Cc1cccc(N2CCN(CCCNC(=O)c3nnc(Cc4c(F)cccc4Cl)o3)CC2C)c1 (configuration not stated) -33.3%
O=S(=O)(O)CCSSCCS(=O)(=O)O -25.6%
O=C(COCc1cc(-c2cccs2)on1)Nc1ccc(OC(F)(F)F)cc1 -1.96%
Cc1cc2c(cc1C)NC(CC(=O)Nc1ccccc1SC(F)(F)F)C(=O)N2 (configuration not stated) -4.02%
COc1cc2c(Nc3ccc(Cl)c(Cl)c3F)ncnc2cc1OCC1C[C@@H]2CN(C)C[C@H]2C1 -50.2%
CCCCOc1ccc(NC(=O)Cn2nnnc2-c2ccccc2F)cc1 -5.28%
Cc1ccc(S(=O)(=O)c2nc(-c3ccco3)oc2SCC(C)C)cc1 -5.19%
COc1cc(OC)c(NC(=O)Cn2cnc3sc(C)c(S(=O)(=O)N4CCN(C)CC4)c3c2=O)cc1Cl -12.1%
COc1ccc2ncc3c(-c4ccc(C)c(C)c4)nn(CC(=O)NC4CCCCC4)c3c2c1 -4.46%
CCc1cc2c(cc3c(=O)n(CC(=O)N4CCCCC4)ncn32)s1 3.85%
CCOc1ccc2nc(N3CCCC(C(=O)Nc4cccc(Cl)c4C)C3)sc2c1 (configuration not stated) 33.2%
O=C(Cc1ccc(NC(=O)N2CCCCc3ccccc32)cc1)NCc1ccccc1 -29.2%
CCCCN(CCCC)CCNC(=O)c1cc(-c2cccnc2)nc2ccc(S(=O)(=O)N3CCC(C)CC3)cc12 -3.89%
CCCCn1cc(S(=O)(=O)c2ccc(F)cc2)c(=O)c2ccccc21 5.3%
COc1ccccc1CNC(=O)c1ccc(-c2nc(CS(=O)c3ccccc3)c(C)o2)cc1 (configuration not stated) 10.8%
N#CC(=C(O)c1ccc(Cl)cc1Cl)c1nc2cc(Cl)ccc2c(=O)[nH]1 -16.2%
Cc1ccc(Cl)cc1NC(=O)CN1C(=O)COc2ccc(S(=O)(=O)N3CCOCC3)cc21 -20.6%
Cc1cnc2c(c1SCC(=O)Nc1ccc(F)cc1F)c(=O)n(C)c(=O)n2C -5.16%
Cc1cc(F)ccc1NC(=O)C1CCCN(S(=O)(=O)c2ccc3c(c2)CCCC(=O)N3)C1 (configuration not stated) -26%
COc1ccc(N(Cc2cccs2)C(=O)COc2ccc(C(C)C)cc2)cc1 -45%
COc1ccc(S(=O)(=O)c2c(Nc3ccc(C)cc3)sc(C(=O)c3ccc4c(c3)OCO4)c2N)cc1 -19%
CN(C)c1ccc(CN(CC2CCCO2)C(=O)c2ccc(Br)cc2)cc1 (configuration not stated) -16.2%
Cc1ccc2[nH]c3c(=O)n(CC(=O)N4CCN(c5cccc(C(F)(F)F)c5)CC4)ncc3c2c1 -6.64%
CCOc1ccc(N2C(=O)N(Cc3c(F)cccc3Cl)c3ccccc3S2(=O)=O)cc1 -19.3%
COc1cccc(CNC(=O)CN2C(=O)CSc3c2c(C)nn3-c2ccccc2)c1 -9.87%
Cc1ccc(-n2c(=O)c3ccc(C(=O)NCc4ccccc4Cl)cc3n(CC(=O)Nc3cccc(F)c3)c2=O)cc1 -22.4%
Cc1ccc(CN2CCNCC2)cc1NC(=O)CNc1ccc(F)c(F)c1 -5.94%
Cc1ccc2[nH]c(CSc3nnc(COc4ccccc4C)n3C)cc(=O)c2c1 -27.6%
CCOC(=O)N1CCC2(CC1)OC(=O)C(C)=C2C(=O)NCc1cccc(OC)c1 -10%
Cn1c(=O)n(-c2cccc(Cl)c2)c(=O)c2sc3ccccc3c21 -6.21%
Cc1cc(NC(=O)Cn2nc(C)n3cccc3c2=O)ccc1Br -15.4%
CCCS(=O)(=O)N1CC(=O)N(c2ccccc2C)C(C)(C(=O)NC2CCCC2)C1 (configuration not stated) -8.83%
CNC(=O)c1sc2ncccc2c1-n1cccc1 -2.37%
Cc1cccc(-n2ncc(C(=O)NCc3ccccn3)c2C2CCN(C(=O)OC(C)(C)C)CC2)c1 -7.22%
CCN1CCN(Cc2c(O)ccc3c(C)c(-c4ccccc4)c(=O)oc23)CC1 -12.9%
COc1ccc(CNc2cc(-c3ccc(OC)cc3)nc3nncn23)cc1 -26.1%
O=C(CSc1nc2c(c(=O)[nH]1)CCCC2)Nc1ccc(Br)cc1 -20.7%
CCCC(C(=O)OCCN(CC)CC)(c1ccccc1)c1ccccc1 -29.3%
Cc1ccc(NC(=O)Cn2c(=O)n(CCC(=O)NCc3ccc4c(c3)OCO4)c(=O)c3sccc32)c(C)c1 -15.7%
Cc1ccc(C)c(N2CCN(c3nc4ccccc4n4c(C)nnc34)CC2)c1 -3.1%
Cc1ccc(NC(=O)C(c2ccccc2)N2Cc3ccccc3C2=O)cc1Cl (configuration not stated) -14.4%
CCc1ccccc1NC(=O)CN1C(=O)c2cccnc2Oc2ccc(Cl)cc21 -34.4%
CCOc1ccc(Br)cc1CNCCSc1nnnn1-c1ccccc1 -15.2%
CC(C)(C)OC(=O)N1CCC(c2c(C(=O)Nc3ccc4c(c3)OCCO4)cnn2-c2ccccc2)CC1 -49.5%
CCc1ccc(NC(=O)c2nn(-c3ccc(C)cc3)c(=O)n(C)c2=O)cc1 -11.7%
CO[C@H]1C(=O)[C@]2(C)[C@@H](OC)C[C@H]3OC[C@@]3(OC(C)=O)[C@H]2[C@H](OC(=O)c2ccccc2)[C@]2(O)C[C@H](OC(=O)[C@H](O)[C@@H](NC(=O)OC(C)(C)C)c3ccccc3)C(C)=C1C2(C)C -33.9%
COC(=O)NCc1c(C)nn(-c2ccccc2)c1-n1cccc1 -15.2%
COc1ccc(CNC(=O)c2cc3c(s2)-c2c(C)cccc2OC3)cc1 4.13%
CCOC(=O)c1oc2c(c1C)-c1nn(Cc3ccccc3Cl)cc1CC2 -30.7%
Cc1ccc(C)c(NC(=O)C(=O)NCCc2csc3nc(-c4ccccc4C)nn23)c1 -46.8%
COc1ccc(-c2n[nH]c3c2C(c2ccc(O)cc2)N(c2ccc(Br)cc2)C3=O)cc1 (configuration not stated) -60.4%
CSc1cccc(NC(=O)N2CCN(c3cc(-c4noc(C)n4)ccc3C)CC2)c1 -34.7%
CCOC(=O)c1c(C)[nH]c(C)c1S(=O)(=O)N1CCCC(C(=O)Nc2ccc(F)cc2F)C1 (configuration not stated) -6.76%
O=C(NC1CCCCCC1)c1ccc2c(c1)sc1nc(-c3ccccc3)cn12 11.5%
COc1cc(C2CC(=O)N(c3ccccc3)C3=C2C(=O)OC3)cc(OC)c1OC (configuration not stated) -7.11%
C=C(C)CSc1nc2sc3c(c2c(=O)n1-c1ccccc1)CCC(C)C3 (configuration not stated) 7.73% [at 11.5 µM, percent change from vehicle, -100% = no light]
CCOc1ccc(NC(=O)CSc2cn(CC(=O)N3CCCCCC3)c3ccccc23)cc1 -27%
O=C(C1CCC(Cn2c(=O)c3sccc3n(Cc3cccc(F)c3)c2=O)CC1)N1CCCCC1 (configuration not stated) -43.1%
O=C(NCCc1ccccc1)C(=O)NCC(c1cccnc1)N1CCN(c2ccccc2F)CC1 (configuration not stated) -45%
COc1ccc(CCNC(=O)c2ccc(CS(=O)(=O)Cc3cccc(C)c3)o2)cc1OC -30.7%
Cc1ccc(CNC(=O)C(=O)NCC(c2ccco2)S(=O)(=O)c2cccs2)cc1 (configuration not stated) -22.2%
